# This is one part of the list.
# T1: UNK ZnF1-3 (human, UniProt Q9C0B0 31-174)
# T1 sequence: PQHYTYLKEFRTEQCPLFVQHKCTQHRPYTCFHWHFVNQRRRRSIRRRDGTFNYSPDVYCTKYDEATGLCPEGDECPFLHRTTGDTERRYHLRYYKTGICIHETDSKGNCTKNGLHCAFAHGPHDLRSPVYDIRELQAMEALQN
# B1: chr2:74706439:74706440:+_ENSMUSG00000027099_ENSMUST00000155844|mus_mus|FALSE|FALSE (ssRNA)
# RNA: GGGAGUUCUACAGUCCGACGAUCGUCUGAUCUCAAGCCUUAUCCUCUUAUACCUCUGCAGUCAGCAGCAUAUUGUUGACUAAUUCCAUGUAGGCUUUCAUUUCUGCUUUUUGGACUUCAUCCAACCCAUCACUAAGAGAAUGGCAACAGAGGAUUGAGCAUCA
# B2: chr20:35282059:35282060:-_ENSG00000101079_ENST00000349004|hu_hu|FALSE|FALSE (ssRNA)
# RNA: GGGAGUUCUACAGUCCGACGAUCGCUGGUGACAGACCGGCUGAAGGGACUUUCUCCAGAGCCGAGGCUACUCGAGGUUGAGUGGGUUCGUGAUCGGGCGAGCCGAGUCAUGCUGGCAGAUGGUAUGUAGCCCAUUCCCUGCAACAACAGAGGAUUGAGCAUCA
# B3: chr2:78753848:78753849:+_ENSMUSG00000027011_ENSMUST00000028398|mus_mus|motif|central (ssRNA)
# RNA: GGGAGUUCUACAGUCCGACGAUCGUUAUCUCCUUUAGGCCCAGCACUGCAGUUAGGAGGAGGAUCAAGGGUUAUCUCUGCGGGCUCCUUCUGAAUUCUUUUAGCACUAGUGGAUAACUUAGCAGUCGUUUUGCUAGAGAGUUUCAACAGAGGAUUGAGCAUCA
# B4: chr6:114281168:114281169:-_ENSG00000196591_ENST00000368632|hu_hu|hu_hu_hu_mus_True|1_38 (ssRNA)
# RNA: GGGAGUUCUACAGUCCGACGAUCUUCCAUUUUUCGGUAUAAACCAUAAUUUAGCAGCAAGUUAUGAGUCAUCCGGAUUCUAUGAGGCUUCAUGGGAUGACCCUGUCCAUAAUAAUAAUUGCCAAUAUCACCAUCAUACUAGAACAACAGAGGAUUGAGCAUCA
# B5: chr17:74699132:74699133:-_ENSMUSG00000024067_ENSMUST00000112571|perfect_dup|FALSE|FALSE (ssRNA)
# RNA: GGGAGUUCUACAGUCCGACGAUCCCCAUUAAGUCAGUUUCGAUCUUCAAACUGUGCCUUGUUUUUUAAAAGAUAAGAUGCUAGAAAUUCAAUGGGAUUUGGUGGUCUUUCCUUUGCAAGCACAGCAAGUCCCUGUAAUAAGAUCAACAGAGGAUUGAGCAUCA
# B6: chr12:48362563:48362564:+_ENSG00000134291_ENST00000256686|hu_hu|hu_hu_hu_mus_False|38_68 (ssRNA)
# RNA: GGGAGUUCUACAGUCCGACGAUCUCCGUCAAGCCCUUCGAUAGACCCUUGCGGGGGAAACUGUAAUAAUUCUAACUGGGGAAGGAAAAGAAACGCCAACACACUUUCAAAAAGCGGGGGUGGGGUGAGGCGGGAGGGGGAGGUCAACAGAGGAUUGAGCAUCA
# B7: chr1:220276048:220276049:+_ENSG00000067704_ENST00000302637|hu_hu|hu_hu_hu_mus_True|1_48 (ssRNA)
# RNA: GGGAGUUCUACAGUCCGACGAUCGCAAAUUGCCUGGUUGGCGGGAAUUGUCCAAGGCUGGGUGGUCCAAACUAAAACGCUAACAGGAGAUGAACCAUCUGUAAGAGACUCCAACUUCGGAGGAGGUCUCAGGAGGGGAAAUUUCAACAGAGGAUUGAGCAUCA
# B8: chr11:100643421:100643422:-_ENSMUSG00000020919_ENSMUST00000004143|mus_mus|FALSE|FALSE (ssRNA)
# RNA: GGGAGUUCUACAGUCCGACGAUCACAGGAGGGGGGAAAUUUGAUGUCAAAUUAGGGUGCAAAUGGGAAAAACAUAAAAAAAGACCUGAUUUAGAAACAAAAAACACCACCGGACGUUUGCAGGAAGCCAUUAUCAACACGCUUCAACAGAGGAUUGAGCAUCA
# B9: chr4:94236435:94236436:-_ENSMUSG00000028577_ENSMUST00000107107|mus_mus|motif|central (ssRNA)
# RNA: GGGAGUUCUACAGUCCGACGAUCCUGGGACAUCAUGAGCUUUUGUCCUGCCUGACUAACAAAGCAAUUGCAAAAAGUCCGGAGAGCAAGCAGCUGGUUUGCUGGCUUUCCUUUGGGGUUCAGAAGGUUGAUAAGAUGGCUGCUCAACAGAGGAUUGAGCAUCA
# B10: 25675576_25677131_665_3pUTR_ENSMUSG00000036333_ENSMUST00000066652|mouse|control|control (ssRNA)
# RNA: GGGAGUUCUACAGUCCGACGAUCCUUCACACAUUCCAAAUGACCCUUUCGGGCAGCCCACACCAAAGGAGUUGUUCCAUACUUAUCAGAGCAAUUGACUUUCGCACCAUUCUGCAGCAGAAGAUGCACUAUGUCGGCGUGGCCCAACAGAGGAUUGAGCAUCA
# B11: chr6:86333760:86333761:-_ENSG00000135316_ENST00000355238|hu_mus|hu_hu_hu_mus_True|28_78 (ssRNA)
# RNA: GGGAGUUCUACAGUCCGACGAUCUUCCUCAAGAAUCUGCUCCUUGGUUUUACUCUUAGGAAUAGAGCCCACAAAAAGCCUAUUGUUGGCAACUGAGAUGCAGACACCAAUAUGUUUCCCGGAACGAAUUUCAUGAUUAUUAUACAACAGAGGAUUGAGCAUCA
# B12: chrX:100910778:100910779:-_ENSG00000184867_ENST00000356824|hu_hu|motif|central (ssRNA)
# RNA: GGGAGUUCUACAGUCCGACGAUCAACACACACUCCAGAUGUAGUGCAUAAGUAAAAAAGGGAACCUUUAUUGAAUUCUCGGUAGUUAAACACUUCUGCUCUGAGAUUGUCAUAGAUAAUCUCAAAUAGAGUAAGGGCAUUAAUCAACAGAGGAUUGAGCAUCA
# B13: chr2:48026839:48026840:+_ENSG00000116062_ENST00000540021|hu_hu|hu_hu_hu_mus_False|18_38 (ssRNA)
# RNA: GGGAGUUCUACAGUCCGACGAUCAUAGUGAGCCACUAGCGUCCUAAAUCUGGAACAGUGGCGGUCAUCCGAAAACUGGCCGAUGAAAAACUUGCCCAGUGAAGUAUCCACAAAGCACACACCAUAUACACGAGUGUGACCAGACAACAGAGGAUUGAGCAUCA
# B14: chr8:117878989:117878990:-_ENSG00000164754_ENST00000297338|hu_hu|hu_hu_hu_mus_True|48_58 (ssRNA)
# RNA: GGGAGUUCUACAGUCCGACGAUCCCAGAGGCCCUCGUUUACUGAGGACAAAAUGUGCGUAGAACAUUUUUCUUAUUGGCUAUGAAAACAGAAGAAACCUGGAUCUCGGCGGGGAGCCGGGAGGGGUGGGUGGCCCGGGGAGGGCAACAGAGGAUUGAGCAUCA
# Biological target: T1, UNK ZnF1-3
# Test: nsRBNS (natural sequence RNA bind-n-seq); RBNS binding buffer (assumed for nsRBNS): 25 mM Tris pH 7.5, 150 mM KCl, 3 mM MgCl2, 0.01% Triton X-100, 500 ug/ml BSA, 20 U/ml SUPERase-In, 4 C; UNK is unkempt and MSI1 is Musashi-1; names of the RNAs are library labels; protein concentration not given here; high values mean tight binding
row,Binder,binding signal [enrichment R]
1,B1,0.657
2,B2,0.984
3,B3,0.936
4,B4,0.825
5,B5,0.99
6,B6,1.76
7,B7,1.49
8,B8,3.12
9,B9,1.45
10,B10,1.22
11,B11,1.17
12,B12,0.732
13,B13,1.18
14,B14,1.86

# From paper PMC12136788
